# In all, about 310,000 compounds went through this assay and about 14,000 (4.5%) showed an effect of 50% or more. Effects have a minus sign here. The list shows a part of the results.
# Biological target: human ether-à-go-go-related gene (hERG) potassium channel (human, UniProt Q12809)
# Assay: primary screen, population patch clamp on CHO cells stably expressing hERG
# 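Also: peak tail current of the secondary pulse compared with the same well before compound.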
# human ether-à-go-go-related gene (hERG) potassium channel, sequence (Q12809 whole entry, looked up): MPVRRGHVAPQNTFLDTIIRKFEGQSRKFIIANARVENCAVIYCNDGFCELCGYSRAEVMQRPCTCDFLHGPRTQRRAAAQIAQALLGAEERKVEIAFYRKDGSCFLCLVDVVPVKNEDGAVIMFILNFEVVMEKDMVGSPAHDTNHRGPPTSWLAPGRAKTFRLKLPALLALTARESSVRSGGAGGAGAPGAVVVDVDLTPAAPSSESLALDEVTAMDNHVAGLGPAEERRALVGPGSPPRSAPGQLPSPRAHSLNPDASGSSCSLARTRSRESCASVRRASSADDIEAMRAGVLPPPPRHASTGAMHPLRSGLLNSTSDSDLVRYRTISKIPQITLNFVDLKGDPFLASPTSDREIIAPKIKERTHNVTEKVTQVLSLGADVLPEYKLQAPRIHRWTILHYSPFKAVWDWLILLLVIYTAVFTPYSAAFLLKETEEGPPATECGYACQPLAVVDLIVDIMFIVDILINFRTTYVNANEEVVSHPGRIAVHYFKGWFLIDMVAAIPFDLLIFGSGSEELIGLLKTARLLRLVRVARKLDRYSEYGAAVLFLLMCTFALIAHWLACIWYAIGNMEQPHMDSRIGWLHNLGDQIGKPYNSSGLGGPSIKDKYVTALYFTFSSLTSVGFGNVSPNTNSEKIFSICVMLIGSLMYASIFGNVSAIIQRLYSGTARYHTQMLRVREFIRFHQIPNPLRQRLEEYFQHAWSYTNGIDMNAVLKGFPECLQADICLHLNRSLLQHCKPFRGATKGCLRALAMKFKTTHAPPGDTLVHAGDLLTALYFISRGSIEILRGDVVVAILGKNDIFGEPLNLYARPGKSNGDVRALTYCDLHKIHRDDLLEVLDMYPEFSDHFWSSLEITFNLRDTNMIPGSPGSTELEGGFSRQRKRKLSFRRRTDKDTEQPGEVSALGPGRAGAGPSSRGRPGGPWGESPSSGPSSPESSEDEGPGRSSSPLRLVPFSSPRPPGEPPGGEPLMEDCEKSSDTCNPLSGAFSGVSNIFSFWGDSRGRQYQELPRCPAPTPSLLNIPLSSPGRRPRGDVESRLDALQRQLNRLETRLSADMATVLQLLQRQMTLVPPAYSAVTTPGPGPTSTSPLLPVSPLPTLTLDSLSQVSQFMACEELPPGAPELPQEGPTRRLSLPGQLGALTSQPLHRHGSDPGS
row,SMILES,"hERG current change (%, negative = inhibition) at 10uM"
1,Cc1ccc(OCC(=O)Nc2ccccc2-c2ccccc2NC(=O)COc2ccc(C)cc2)cc1,3.47%
2,O=C1CC(NCCC2=CCCCC2)C(=O)N1c1cccc(Cl)c1Cl (stereo not shown),4.74%
3,COC(=O)CSc1ccccc1C(=O)OC,10%
4,CC1(C)C2CC[C@]3(C)C(CC=C4[C@@H]5C[C@@](C)(CO)[C@@H](O)C[C@]56C[C@@H](OC6=O)[C@]43C)[C@@]2(C)CC[C@@H]1O (stereo partly shown),18.8%
5,CCN(CC)S(=O)(=O)c1ccc(C(=O)NCCOC(=O)c2ccc(F)cc2F)cc1,-47.1%
6,CCCn1c(N)c(N(CCOC)C(=O)CSCC(=O)Nc2cccc(C)c2)c(=O)[nH]c1=O,1.73%
7,CC(=O)Nc1ccc(NC(=O)CSc2nnc3c4ccccc4n(C)c3n2)cc1,4.16%
8,CCOc1ccc(NC(=O)CN2CCN(CC(=O)Nc3ccccc3OC)CC2)cc1,-74.1%
9,O=C(Cn1c(/C=C/c2ccccc2)nc2ccccc21)Nc1ccc(F)cc1,6.64%
10,CN(C(=O)CCc1nc2ccccc2c(=O)[nH]1)C1CCS(=O)(=O)C1 (stereo not shown),5.61%
11,CCCOc1cccc(C(=O)Nc2ccc(CN3CCOCC3)cc2)c1,-20%
12,O=C(c1ccco1)N1CCN(c2cccc(Cl)c2)CC1,-11.5%
13,O=C(CSc1n[nH]c(-c2ccccc2)n1)Nc1ccc(F)cc1F,1.49%
14,CCCOC(=O)C(C)Sc1n[nH]c(=O)[nH]c1=O (stereo not shown),-6.87%
15,Cc1ccc2c(c1)N(S(=O)(=O)c1ccc(CN3C(=O)c4cccnc4C3=O)s1)CCO2,-3.67%
16,O=C(CN1C(=O)NC2(CCCC2)C1=O)NCCc1ccc(Cl)cc1Cl,-8.31%
17,Cc1[nH]c2ccccc2c1/C=N/Nc1ccc(F)cc1F,10.4%
18,COCCCNC(=O)CC1C(=O)N(Cc2ccccc2)C(C)c2nc3ccccc3n21 (stereo not shown),5.91%
19,COc1ccc(NC(=O)C2OC3OC(C)(C)OC3C3OC(C)(C)OC23)cc1 (stereo not shown),1.05%
20,COc1ccc(-c2cc(C(=O)OCC(=O)N(C)C3CCS(=O)(=O)C3)c3ccccc3n2)cc1OC (stereo not shown),-10%
21,O=C(COc1ccccc1)NCCn1ccc2ccccc21,-6.77%
22,COc1cc(OC)cc(C(=O)Nc2cccc(C(C)=O)c2)c1,5.58%

row,SMILES,"hERG current change (%, negative = inhibition) at 10uM"
1,COc1cc(C2N(C)CCC3(OCCO3)C2(C)C)cc(OC)c1OC (stereo not shown),-23.9%
2,CN(C)c1cccc(C(=O)N2CCCC(CCC(=O)N3CCN(c4ccccn4)CC3)C2)c1 (stereo not shown),-0.816%
3,CCn1c(O)c(C=Nc2ccccc2)oc1=S,-2.84%
4,O=[N+]([O-])c1cccn2cc(-c3ccc(Br)cc3)nc12,-2.94%
5,Cc1cc(C(=O)N2CCCC(N3CCN(c4ccc(F)cc4)CC3)C2)no1 (stereo not shown),-37.7%
6,Cc1cc2cc3c(cc2nc1SCc1ccc(C(=O)O)cc1)OCCO3,11.5%
7,C/[N+]([O-])=C\C1C(=O)CCCC1=O,16.1%
8,CCCCc1ccc(NC(=O)CC(C)(C)C)cc1,-9.28%
9,COc1cccc(CNC(=O)c2ccc(COc3ccccc3)cc2)c1,24%
10,Cc1cc(OC(C)C)nc(NCc2ccccc2)n1,-3.54%
11,COc1ccc(-c2nn(-c3ccccc3)cc2/C=N/N2C(=O)CSC2=S)cc1,-6.34%
12,O=C(CCl)N1c2ccccc2SCC1c1ccccc1 (stereo not shown),30.7%
13,Cc1cccc(-c2nc3c(c(SCC(=O)N4CCOCC4)n2)CCCC3)c1,8.13%
14,O=C(O)C(=O)O.OC(COCc1ccco1)CN1CCN(c2ccccc2)CC1 (stereo not shown),-24.8%
15,CC(=O)NC1=NN(C(C)=O)C(C)(c2ccc(Br)cc2)S1 (stereo not shown),-4.33%
16,CC1(C)CC(=O)c2cc(O)ccc2O1,2.76%
17,CCN(CC(=O)Nc1ccc(NC(C)=O)cc1)C(=O)c1cccc(Oc2ccccc2)c1,-1.76%
18,O=C(CCc1nc2ccccc2[nH]1)Nc1ccc2c(c1)OCCO2,5.35%
19,COC(=O)C1=C(c2cccc(C#N)c2)C[C@@H]2CC[C@H]1N2C(=O)N1CCCCC1,-5.23%
20,O=C(CSc1nnc(CNc2ccc(F)cc2)o1)c1ccccc1,2.6%
21,COc1ccc(C2c3ccc4ccccc4c3Oc3ncn(CCN(C)C)c(=N)c32)cc1 (stereo not shown),-77.2%
22,O=S(=O)(c1ccccc1)N(CC(O)COc1ccccc1)c1ccccc1 (stereo not shown),-26.6%

row,SMILES,"hERG current change (%, negative = inhibition) at 10uM"
1,N#Cc1c(NC(=O)CN2C(=O)c3ccccc3C2=O)oc(-c2ccccc2)c1-c1ccccc1,-19.4%
2,COc1ccc(-c2c(NC(=O)CC(C)C)n(C)c3ccccc3c2=O)cc1OC,36.2%
3,Cc1onc(-c2ccccc2)c1-c1ccnn1C(=O)NC(C)C,-4.87%
4,O=C(CCC(=O)N(CC(=O)NC1CCCC1)Cc1cccs1)Nc1nccs1,-11.1%
5,Cc1ccc(NC(=S)N2CCCC2)cc1,-6.49%
6,CC(C)OCCCNc1nc2c([nH]1)c(=O)n(C)c(=O)n2C,-1.72%
7,COC(=O)c1cc(C(=O)N(Cc2ccccc2)c2ccccn2)cc([N+](=O)[O-])c1,-22.4%
8,COCCN(C(=O)Cn1nnc2ccccc21)C(C(=O)NC1CCCCC1)c1ccc(OC)cc1OC (stereo not shown),-15%
9,CC(=O)c1ccc(NC(=O)c2cc(S(=O)(=O)N3CCOCC3)ccc2C)cc1,-1.4%
10,CC1=C(C(=O)NCc2ccco2)C2(CCC(C)CC2)OC1=O (stereo not shown),7.32%
11,Cc1ccccc1NS(=O)(=O)c1ccc(C2CNC(=O)C2)cc1 (stereo not shown),8.49%
12,Cc1ccccc1NC(c1cccc(Cl)c1)c1nnnn1C1CCCCC1 (stereo not shown),3.74%
13,O=C(CNC(=O)c1cc2c(n(-c3ccccc3)c1=O)CCCC2=O)c1ccccc1,-38.5%
14,Cc1ccc2ccccc2c1Cn1c(-n2ccnc2)nc2c1c(=O)n(C)c(=O)n2C,-0.304%
15,O=S(=O)(Nc1ccc(O)c2ccccc12)c1ccc(Br)cc1,-0.608%
16,CC1=C(C(=O)Nc2ccccc2C(=O)NC2CCC(C)CC2)SCCO1 (stereo not shown),14.4%
17,CC1=NN(C(=O)c2ccc(Cn3cc([N+](=O)[O-])cn3)cc2)C(O)(C(F)(F)F)C1 (stereo not shown),-21.1%
18,CC[C@H](CO)NCCN[C@H](CC)CO.Cl,10.7%
19,CN(CC(=O)Nc1cccc(F)c1)C(=O)Cc1n[nH]c(=O)c2ccccc12,5.31%
20,CCO/C([O-])=N/c1sn[n+](C)c1C,18%
21,Cc1c(O)c(CN2CCCCC2)cc2c3c(c(=O)oc12)CCC3,-11.5%
22,O=C(O)c1ccccc1-c1nc2ccccc2c(=O)[nH]1,8.69%

row,SMILES,"hERG current change (%, negative = inhibition) at 10uM"
1,Cc1ccc(CNC(=O)CCCN2C(=S)NC(C)(C)CC2C)cc1 (stereo not shown),-2.55%
2,C=CCSc1nnc2c(n1)OC(c1ccco1)Nc1ccccc1-2 (stereo not shown),-7.61%
3,Cc1cc(C)cc(NC(=S)N2CCN(c3ccc(F)cc3)CC2)c1,-8.95%
4,COc1cc(CN2CCC(N3CCC(C(=O)N4CCCC4)CC3)CC2)cc2c1OCO2,-17.6%
5,Cc1c(C)n(C(=O)CSc2nccn2C)c2ccccc12,-9.32%
6,Cc1ccc(NC(=O)COC(=O)CN2C(=O)NC3(CCCC3)C2=O)cc1F,14.1%
7,CC(C)(C)NC(=O)Cn1nnc(-c2ccccc2NC(=O)c2ccco2)n1,3.01%
8,COc1cc(OC)cc(C(=O)NCCCN2CCOCC2)c1,5.94%
9,COc1ccc(NC(=O)/C(C#N)=C/C=C/c2ccco2)cc1,7.02%
10,COc1cc(NC(=O)c2cccs2)c(C(=O)OCC(=O)c2cc(C)n(-c3ccc(F)cc3)c2C)cc1OC,11.1%
11,c1ccc(-n2c(SCc3nc(-c4cccs4)no3)nnc2-c2ccco2)cc1,-42.6%
12,COc1ccccc1OCCNC(=O)C(CCSC)NS(=O)(=O)c1ccccc1F (stereo not shown),-9.96%
13,O=C(Nc1ccc(N2CCCC2)c(Cl)c1)c1cccs1,24.8%
14,COCCNC(=O)C(c1ccccc1C)N(CCOC)C(=O)Cn1nnc2ccccc21 (stereo not shown),-3.04%
15,Cc1ccc(-c2nc(N=Nc3ccc(O)cc3)n[nH]2)cc1,5.69%
16,CCC(=O)N1CCN(c2nc(C)nc3sc(C)c(C)c23)CC1,-62%
17,COc1ccc2oc(=O)c(C(=O)OCC(=O)c3ccc([N+](=O)[O-])cc3)cc2c1,15.6%
18,COc1ccc(CN2C3CCC2CC(NC(=O)c2cccc(F)c2)C3)cc1 (stereo not shown),-75.2%
19,COc1cc(C(=O)NCC2CCCN2S(=O)(=O)c2cccs2)cc(OC)c1OC (stereo not shown),-7.26%
20,O=C(Nc1ccc2c(c1)C(=O)OC2)c1ccccc1Cl,14.9%
21,CNC(=S)NCCc1c[nH]c2ccc(OC)cc12,12.9%
22,O=C(NCc1cccnc1)Nc1ccc(Br)cc1,-3.66%

# Source: article PMC4336329 (PLoS ONE, 2015)
